± gives the standard error. Variants at the background level are over-represented here.
B1: glmS ribozyme (parent)
chain: AUAAAAGCGCCAGAACUACAGAAAUGUAGUUGACGAGGAGGAGGUUUAUCGAAUUUUCGGCGGAUGCCUCCAAA

Key:
Details in all cases: with glucosamine-6-phosphate
glucosamine-6-phosphate [1] = variants of: B1; assay: self-cleavage kobs at 640 uM GlcN6P; higher = faster cleavage; RNA array
Procedure, shortened: (§1)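 Tiles of sequenced MiSeq chips were imaged over ~14 h at 37 °C. On them, barcoded ribozyme variants had been transcribed in situ by E. coli RNA polymerase and were tracked via a hybridised Cy3 probe while glucosamine-6-phosphate (40 μM to 10 mM) in HEPES/KCl/Mg(OAc)2 buffer flowed in. Per-tile medians, normalised to baseline and to non-cleaving reference variants, were fit to one- or two-exponential decays for kobs, and weighted Michaelis–Menten fits gave kcat and KM.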

glucosamine-6-phosphate [2] = variants of: B1; assay: self-cleavage kobs at 2500 uM GlcN6P; higher = faster cleavage; RNA array
Procedure, shortened: as §1

glucosamine-6-phosphate [3] = variants of: B1; assay: self-cleavage kobs at 160 uM GlcN6P; higher = faster cleavage; RNA array
Procedure, shortened: as §1

glucosamine-6-phosphate [4] = variants of: B1; assay: self-cleavage kobs at 10000 uM GlcN6P; higher = faster cleavage; RNA array
Procedure, shortened: as §1

Row | Variant | self-cleavage kobs at 640 uM GlcN6P (glucosamine-6-phosphate [1]) [s⁻¹] | self-cleavage kobs at 2500 uM GlcN6P (glucosamine-6-phosphate [2]) [s⁻¹] | self-cleavage kobs at 160 uM GlcN6P (glucosamine-6-phosphate [3]) [s⁻¹] | self-cleavage kobs at 10000 uM GlcN6P (glucosamine-6-phosphate [4]) [s⁻¹]
1 | G37U G43A C68U C71A | < 1e-05 | < 1e-05 | – | –
2 | G7C A12G A33U G51U | – | – | < 1e-05 | –
3 | U46A G51C A52G | < 1e-05 | < 1e-05 | < 1e-05 | –
4 | A52U U56C G62C | < 1e-05 | < 1e-05 | – | –
5 | A42C G43C C70U | < 1e-05 | – | – | –
6 | U46C U55C G63U | < 1e-05 | – | – | –
7 | A42U A53G U57A | < 1e-05 | – | – | –
8 | A6C G35U G40U C67U | – | – | < 1e-05 | –
9 | G40C G41C C68A | < 1e-05 | – | – | –
10 | G44C A48G U57C | < 1e-05 | < 1e-05 | – | –
11 | U54A C58A | 9.65e-05 ± 1.3e-05 | 0.000217 ± 2.9e-05 | 2.83e-05 ± 1.3e-05 | 0.000547 ± 5.7e-05
12 | G44U U47C A48C U69G | < 1e-05 | < 1e-05 | – | –
13 | C50A C67U C70G | 6.04e-05 ± 2.3e-05 | – | – | –
14 | G40U U46C U55G | 0.000194 ± 6.6e-05 | – | – | –
15 | A39U G40A C67A | 0.000124 ± 3.1e-05 | 0.000245 ± 6.5e-05 | – | 0.000247 ± 5e-05
16 | G37A C50A C61G | < 1e-05 | – | < 1e-05 | –
17 | G38A G66U | < 1e-05 | – | – | –
18 | G59A G60U C67U | < 1e-05 | – | – | –
19 | C58G G63U A64C | < 1e-05 | – | – | –
20 | G37C U49G C61G | < 1e-05 | – | – | –

Row | Variant | self-cleavage kobs at 640 uM GlcN6P (glucosamine-6-phosphate [1]) [s⁻¹] | self-cleavage kobs at 2500 uM GlcN6P (glucosamine-6-phosphate [2]) [s⁻¹] | self-cleavage kobs at 160 uM GlcN6P (glucosamine-6-phosphate [3]) [s⁻¹] | self-cleavage kobs at 10000 uM GlcN6P (glucosamine-6-phosphate [4]) [s⁻¹]
21 | G38C A48C G66U | < 1e-05 | – | – | –
22 | G43U C58A | < 1e-05 | < 1e-05 | < 1e-05 | –
23 | G37U U54A U55G C61U G62C | < 1e-05 | – | – | –
24 | G40U G51C | < 1e-05 | < 1e-05 | – | < 1e-05
25 | G40U G51A U65A | < 1e-05 | – | – | –
26 | G38C U47C | < 1e-05 | < 1e-05 | < 1e-05 | < 1e-05
27 | A42U A53G G60A C70U | < 1e-05 | – | – | < 1e-05
28 | G51A U55C | < 1e-05 | – | < 1e-05 | < 1e-05
29 | G44C U56A G62U | < 1e-05 | – | – | < 1e-05
30 | A42C C67U C71G | < 1e-05 | – | – | –
31 | U46G A48U | 3.53e-05 ± 1.4e-05 | 0.000128 ± 2.5e-05 | – | 0.000117 ± 1.6e-05
32 | A42U U45G U54C U57G | < 1e-05 | – | – | –
33 | G7C G13U A42G | – | – | < 1e-05 | < 1e-05
34 | A39G A53U U56G G62A | < 1e-05 | – | – | –
35 | A39U C58A G59U | < 1e-05 | < 1e-05 | – | –
36 | A6C A12C G40C | – | – | < 1e-05 | –
37 | A6U G35U A53C | – | < 1e-05 | < 1e-05 | –
38 | G60A C61U | < 1e-05 | < 1e-05 | < 1e-05 | < 1e-05
39 | A36U U49G C58U | < 1e-05 | < 1e-05 | < 1e-05 | –
40 | G44U U69C | < 1e-05 | – | < 1e-05 | –

Row | Variant | self-cleavage kobs at 640 uM GlcN6P (glucosamine-6-phosphate [1]) [s⁻¹] | self-cleavage kobs at 2500 uM GlcN6P (glucosamine-6-phosphate [2]) [s⁻¹] | self-cleavage kobs at 160 uM GlcN6P (glucosamine-6-phosphate [3]) [s⁻¹] | self-cleavage kobs at 10000 uM GlcN6P (glucosamine-6-phosphate [4]) [s⁻¹]
41 | G37C G63U G66C | < 1e-05 | – | – | < 1e-05
42 | G41A U56G | 5.1e-05 ± 1.4e-05 | 0.000109 ± 3.5e-05 | – | 0.000169 ± 4.7e-05
43 | G40A A53C C61U | < 1e-05 | – | – | –
44 | U49C C67A | < 1e-05 | – | < 1e-05 | < 1e-05
45 | U45C G63C | < 1e-05 | < 1e-05 | < 1e-05 | < 1e-05
46 | G44A U56A | 4.93e-05 ± 1.6e-05 | – | – | –
47 | A39G G44U U45A G51U | < 1e-05 | < 1e-05 | < 1e-05 | –
48 | A36U A52U | < 1e-05 | < 1e-05 | – | –
49 | A6G A15U U30C | – | – | < 1e-05 | –
50 | U55A G59C | < 1e-05 | – | – | < 1e-05
51 | G41C C71U | 3.67e-05 ± 8.3e-06 | 0.000119 ± 1.8e-05 | – | 0.00016 ± 1.7e-05
52 | G40U A48C C50G A52U U55A | < 1e-05 | < 1e-05 | – | –
53 | G7C G35A A64G | – | < 1e-05 | < 1e-05 | –
54 | G40U G41C C70A | 6.65e-05 ± 1.8e-05 | 0.000546 ± 0.00013 | – | –
55 | G41U G43C C70G | < 1e-05 | – | – | –
56 | A42C U46G U49A | < 1e-05 | – | – | –
57 | G40C A42G A53C | 0.00018 ± 6.6e-05 | 0.000564 ± 0.00013 | 5.62e-05 ± 1.9e-05 | –
58 | U46C U55C U57G A64G C68U | < 1e-05 | < 1e-05 | < 1e-05 | –
59 | G38U A42U G62U | < 1e-05 | < 1e-05 | < 1e-05 | –

Reference: the supplement of paper PMC7125110
